According to paper PMC9911399, “Two distinct binding modes provide the RNA-binding protein RbFox with extraordinary sequence specificity”:
Substitutions are numbered along the chain they refer to; changes in the protein carry UniProt numbers. The list shows a part of the results.

T1: RBFOX1 RRM RbFoxmut (Fox-RRM*) (Homo sapiens, UniProt Q9NWB1 109-208, R118D;E147R;N151S;E152T)
T1 sequence: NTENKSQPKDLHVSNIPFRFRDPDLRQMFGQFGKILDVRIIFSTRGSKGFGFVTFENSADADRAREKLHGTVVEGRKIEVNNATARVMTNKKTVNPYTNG

B1: CUGGAAC (DNA:RNA)
RNA: GGGAGACCGGAAUUCAGAUUGUCCCUGGAACUUAAAUCCCGUCGUAGCCACCA
DNA 1: CAATCTGAATTCCGGTCTCCC
DNA 2: TGGTGGCTACGACGGGATT
B2: UUUUUUG (DNA:RNA)
RNA: B1 RNA with C25U, G27U, G28U, A29U, A30U, C31G
DNA 1: CAATCTGAATTCCGGTCTCCC
DNA 2: TGGTGGCTACGACGGGATT
B3: GCGCACU (DNA:RNA)
RNA: B1 RNA with C25G, U26C, G28C, A30C, C31U
DNA 1: CAATCTGAATTCCGGTCTCCC
DNA 2: TGGTGGCTACGACGGGATT
B4: CAACCAU (DNA:RNA)
RNA: B1 RNA with U26A, G27A, G28C, A29C, C31U
DNA 1: CAATCTGAATTCCGGTCTCCC
DNA 2: TGGTGGCTACGACGGGATT
B5: GCAUUUG (DNA:RNA)
RNA: GGGAGACCGGAAUUCAGAUUGUCCGCAUUUGUUAAAUCCCGUCGUAGCCACCA
DNA 1: CAATCTGAATTCCGGTCTCCC
DNA 2: TGGTGGCTACGACGGGATT
B6: GAACCUU (DNA:RNA)
RNA: B5 RNA with C26A, U28C, U29C, G31U
DNA 1: CAATCTGAATTCCGGTCTCCC
DNA 2: TGGTGGCTACGACGGGATT
B7: ACUUAAG (DNA:RNA)
RNA: B5 RNA with G25A, A27U, U29A, U30A
DNA 1: CAATCTGAATTCCGGTCTCCC
DNA 2: TGGTGGCTACGACGGGATT
B8: AGCCUGC (DNA:RNA)
RNA: B1 RNA with C25A, U26G, G27C, G28C, A29U, A30G
DNA 1: CAATCTGAATTCCGGTCTCCC
DNA 2: TGGTGGCTACGACGGGATT
B9: AUAUCCG (DNA:RNA)
RNA: B5 RNA with G25A, C26U, U29C, U30C
DNA 1: CAATCTGAATTCCGGTCTCCC
DNA 2: TGGTGGCTACGACGGGATT
B10: UAGGUAA (DNA:RNA)
RNA: B1 RNA with C25U, U26A, A29U, C31A
DNA 1: CAATCTGAATTCCGGTCTCCC
DNA 2: TGGTGGCTACGACGGGATT
B11: AGUACCC (DNA:RNA)
RNA: B1 RNA with C25A, U26G, G27U, G28A, A29C, A30C
DNA 1: CAATCTGAATTCCGGTCTCCC
DNA 2: TGGTGGCTACGACGGGATT
B12: AAAUGCA (DNA:RNA)
RNA: B5 RNA with G25A, C26A, U29G, U30C, G31A
DNA 1: CAATCTGAATTCCGGTCTCCC
DNA 2: TGGTGGCTACGACGGGATT
B13: AGCAUUC (DNA:RNA)
RNA: B5 RNA with G25A, C26G, A27C, U28A, G31C
DNA 1: CAATCTGAATTCCGGTCTCCC
DNA 2: TGGTGGCTACGACGGGATT
B14: UCCCGUC (DNA:RNA)
RNA: B5 RNA with G25U, A27C, U28C, U29G, G31C
DNA 1: CAATCTGAATTCCGGTCTCCC
DNA 2: TGGTGGCTACGACGGGATT
B15: CCUGGUU (DNA:RNA)
RNA: B1 RNA with U26C, G27U, A29G, A30U, C31U
DNA 1: CAATCTGAATTCCGGTCTCCC
DNA 2: TGGTGGCTACGACGGGATT
B16: GCGCCAG (DNA:RNA)
RNA: B5 RNA with A27G, U28C, U29C, U30A
DNA 1: CAATCTGAATTCCGGTCTCCC
DNA 2: TGGTGGCTACGACGGGATT
B17: GCGUGGC (DNA:RNA)
RNA: B5 RNA with A27G, U29G, U30G, G31C
DNA 1: CAATCTGAATTCCGGTCTCCC
DNA 2: TGGTGGCTACGACGGGATT
B18: ACAUCCA (DNA:RNA)
RNA: B5 RNA with G25A, U29C, U30C, G31A
DNA 1: CAATCTGAATTCCGGTCTCCC
DNA 2: TGGTGGCTACGACGGGATT
B19: GGCUCGU (DNA:RNA)
RNA: B5 RNA with C26G, A27C, U29C, U30G, G31U
DNA 1: CAATCTGAATTCCGGTCTCCC
DNA 2: TGGTGGCTACGACGGGATT
B20: AGAUAUC (DNA:RNA)
RNA: B5 RNA with G25A, C26G, U29A, G31C
DNA 1: CAATCTGAATTCCGGTCTCCC
DNA 2: TGGTGGCTACGACGGGATT
B21: GCCUGAU (DNA:RNA)
RNA: B5 RNA with A27C, U29G, U30A, G31U
DNA 1: CAATCTGAATTCCGGTCTCCC
DNA 2: TGGTGGCTACGACGGGATT
B22: AGCCUUU (DNA:RNA)
RNA: B5 RNA with G25A, C26G, A27C, U28C, G31U
DNA 1: CAATCTGAATTCCGGTCTCCC
DNA 2: TGGTGGCTACGACGGGATT
B23: GCGGGUA (DNA:RNA)
RNA: B5 RNA with A27G, U28G, U29G, G31A
DNA 1: CAATCTGAATTCCGGTCTCCC
DNA 2: TGGTGGCTACGACGGGATT
B24: UGCUCAG (DNA:RNA)
RNA: B5 RNA with G25U, C26G, A27C, U29C, U30A
DNA 1: CAATCTGAATTCCGGTCTCCC
DNA 2: TGGTGGCTACGACGGGATT
B25: GAGUAAA (DNA:RNA)
RNA: B1 RNA with C25G, U26A, G28U, C31A
DNA 1: CAATCTGAATTCCGGTCTCCC
DNA 2: TGGTGGCTACGACGGGATT
B26: UCUCGUG (DNA:RNA)
RNA: B5 RNA with G25U, A27U, U28C, U29G
DNA 1: CAATCTGAATTCCGGTCTCCC
DNA 2: TGGTGGCTACGACGGGATT
B27: AACUUAC (DNA:RNA)
RNA: B1 RNA with C25A, U26A, G27C, G28U, A29U
DNA 1: CAATCTGAATTCCGGTCTCCC
DNA 2: TGGTGGCTACGACGGGATT
B28: AGGUGGA (DNA:RNA)
RNA: B1 RNA with C25A, U26G, G28U, A29G, A30G, C31A
DNA 1: CAATCTGAATTCCGGTCTCCC
DNA 2: TGGTGGCTACGACGGGATT
B29: GACUACU (DNA:RNA)
RNA: B5 RNA with C26A, A27C, U29A, U30C, G31U
DNA 1: CAATCTGAATTCCGGTCTCCC
DNA 2: TGGTGGCTACGACGGGATT
B30: AUCAGCC (DNA:RNA)
RNA: B1 RNA with C25A, G27C, G28A, A29G, A30C
DNA 1: CAATCTGAATTCCGGTCTCCC
DNA 2: TGGTGGCTACGACGGGATT
B31: GAAGAAG (DNA:RNA)
RNA: B1 RNA with C25G, U26A, G27A, C31G
DNA 1: CAATCTGAATTCCGGTCTCCC
DNA 2: TGGTGGCTACGACGGGATT

Target: T1, RBFOX1 RRM RbFoxmut (Fox-RRM*)
Experiment: EMSA; HiTS-Eq, 1 nM pool, 10 min; buffer printed only for the single-RNA assays: 10 mM Tris pH 7.5, 150 mM NaCl, 3.4 mM EDTA, 0.001% NP-40, 30 C
Details: tags: His6 N-terminal (pET28a); label: 5' 32P
Outline: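 Purified wild-type or mutant RbFox RRM at increasing concentrations was equilibrated with 1 nM of 5′-radiolabelled RNA carrying 7 randomized nucleotides for 10 min in 50 µL. Unbound RNA was separated by 8% native PAGE and sequenced. Relative association constants came from read-count changes of each RNA species compared with the control reaction, normalised to the cognate motif.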

Row | Binder | binding signal
1 | B1 | 0.0803 KA relative to UGCAUGU
2 | B2 | 0.0953 KA relative to UGCAUGU
3 | B3 | 0.087 KA relative to UGCAUGU
4 | B4 | 0.0957 KA relative to UGCAUGU
5 | B5 | 0.138 KA relative to UGCAUGU
6 | B6 | 0.119 KA relative to UGCAUGU
7 | B7 | 0.174 KA relative to UGCAUGU
8 | B8 | 0.0804 KA relative to UGCAUGU
9 | B9 | 0.0989 KA relative to UGCAUGU
10 | B10 | 0.0984 KA relative to UGCAUGU
11 | B11 | 0.0811 KA relative to UGCAUGU
12 | B12 | 0.155 KA relative to UGCAUGU
13 | B13 | 0.0738 KA relative to UGCAUGU
14 | B14 | 0.0849 KA relative to UGCAUGU
15 | B15 | 0.0981 KA relative to UGCAUGU
16 | B16 | 0.0856 KA relative to UGCAUGU

Row | Binder | binding signal
17 | B17 | 0.143 KA relative to UGCAUGU
18 | B18 | 0.0957 KA relative to UGCAUGU
19 | B19 | 0.249 KA relative to UGCAUGU
20 | B20 | 0.0876 KA relative to UGCAUGU
21 | B21 | 0.113 KA relative to UGCAUGU
22 | B22 | 0.057 KA relative to UGCAUGU
23 | B23 | 0.157 KA relative to UGCAUGU
24 | B24 | 0.0844 KA relative to UGCAUGU
25 | B25 | 0.097 KA relative to UGCAUGU
26 | B26 | 0.12 KA relative to UGCAUGU
27 | B27 | 0.0902 KA relative to UGCAUGU
28 | B28 | 0.0973 KA relative to UGCAUGU
29 | B29 | 0.103 KA relative to UGCAUGU
30 | B30 | 0.0782 KA relative to UGCAUGU
31 | B31 | 0.0975 KA relative to UGCAUGU
